Hit rate of the full screen: of about 48,000 compounds, about 450 (0.94%) were called active. Not shown: some 19% with an inconclusive outcome. Calls follow the shape of the dose curve; as a rule, active = well fitted inhibition curve with a large enough effect; inconclusive = small, poorly fitted or top-dose-only effect; inactive = no such curve, though single readings can be large or run the other way. Some of the results follow.

The assay can be described thus: Primary qHTS for Identification of Small Molecule Inhibitors of Huntingtin Promoter Activity. Also: nearly all actives have a fitted effect of over 50% in size. Conditions: HEK293 HTT promoter firefly luciferase reporter (activity 0% = vehicle and -100% = no light), 24 h; series mostly up to 57.5 µM; activity change, negative = inhibition: at the top concentration. An outline of the steps: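 Quantitative HTS used concentration series of up to 57.5 uM final on HEK293 luciferase reporter cells, 24 h at 37 degrees C. Readout was Dual-Glo firefly luminescence.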
A general note: Quantitative high-throughput screening tests each substance at several concentrations.
Take `Cc1ccc(Cl)cc1N1CCN(C(=O)CCCCCn2c(=O)[nH]c3ccccc3c2=O)CC1`: the “activity change, negative = inhibition” value is inactive: -2.75%.

Turning to `CCOc1ccccc1-c1nc(SCC(=O)c2ccc(OC)c(Br)c2)n[nH]1`, the “activity change, negative = inhibition” value is inactive: -6.7%.

Turning to `CC(C)OC(=O)c1cccnc1SCC(=O)Nc1ccc(C(F)(F)F)cc1Cl`, the “activity change, negative = inhibition” value was inactive: -5.98%.

For `O=c1c2sccc2n(Cc2cc(=O)n3ccccc3n2)c(=O)n1-c1cccc(C(F)(F)F)c1`, the “activity change, negative = inhibition” value is inactive: -8.44%.

In the case of `Cc1cnc(=O)[nH]c1SCC(=O)Nc1nc2ccccc2s1`, the “activity change, negative = inhibition” value is inactive: 27.6%.

Consider `Cc1ccc2oc(-c3cccc(NC(=O)c4sc5c([N+](=O)[O-])cccc5c4Cl)c3)nc2c1`, for which the “activity change, negative = inhibition” value was inactive: -8.51%.

Take `CCc1ccc(C(=O)NC(Cc2c[nH]c3ccccc23)C(=O)OCC(=O)c2ccc(Br)cc2)cc1` (centres undefined): the “activity change, negative = inhibition” value was inactive: -6.11%.

As for `Cc1cc2c(cc3c(SCC(=O)Nc4cccc(Cl)c4C)nnc(C)n32)o1`, the “activity change, negative = inhibition” value is inactive: -3.41%.

Consider `CCOc1ccc(CCNC(=O)c2c(C)oc3ncn(C)c(=O)c23)cc1`, for which the “activity change, negative = inhibition” value is inactive: 5.74%.

For `CC(C)CCOc1ccccc1Cn1c(=O)sc2ccccc21`, the “activity change, negative = inhibition” value was inactive: -7.09%.

Consider `O=C(NCCCN1CCOCC1)c1ccc(Cl)cc1`, for which the “activity change, negative = inhibition” value was inactive: 13.4%.

On to `CCc1ccc(-n2c(=O)c3c(C)c(C(=O)N(C)C)sc3n(Cc3ccccc3F)c2=O)cc1`, for which the “activity change, negative = inhibition” value was inactive: -9.7%.

Turning to `Cc1oc(-c2ccccc2Cl)nc1CS(=O)CC(=O)NCc1ccccc1Cl` (centres undefined), the “activity change, negative = inhibition” value is inactive: -3.13%.

With `COc1ccc(NC(=O)CN2CCN(CC(=O)Nc3ccccc3F)CC2)cc1OC`, the “activity change, negative = inhibition” value was inactive: -22.2%.

For `O=S(=O)(c1ccc(F)cc1)N(Cc1nc(-c2ccccc2)no1)C1CCCCC1`, the “activity change, negative = inhibition” value is inactive: -16.7%.

For `O=C(COc1ccc(F)cc1)Nc1ccc(C(=O)OCc2cc(=O)n3nc(C4CC4)sc3n2)cc1`, the “activity change, negative = inhibition” value is inactive: -4.46%.

Consider `CCOc1ccc(NC(=O)N2CCC(c3ccc(C)cc3)C2)cc1` (centres undefined), for which the “activity change, negative = inhibition” value is inactive: 21.1%.

Regarding `Cc1ccc(CN(Cc2cccn2-c2nnc(N3CCCC3=O)s2)C(=O)Nc2ccc(F)cc2)cc1`, the “activity change, negative = inhibition” value is inactive: -11.3%.

For `CCOc1ccc(NC(=O)c2sc3nc4c(cc3c2N)CN(Cc2ccccc2)CC4)cc1`, the “activity change, negative = inhibition” value is inactive: -24.2%.

As for `Cc1ccc(-n2nc(C(=O)Nc3ccc(Br)cc3C)c(=O)n(C)c2=O)cc1`, the “activity change, negative = inhibition” value was inactive: -3.92%.

In the case of `COC(=O)c1ccc(NC(=O)C(=O)NCCc2csc(-c3ccc(C(F)(F)F)cc3)n2)cc1`, the “activity change, negative = inhibition” value is inactive: -3.83%.

Consider `COc1ccccc1CNC(=O)CSCc1nc(-c2ccc(OC)c(OC)c2)oc1C`, for which the “activity change, negative = inhibition” value is inactive: -20.2%.

With `Cc1ccc(Cn2ccnc2SCC(=O)Nc2ccccc2C(F)(F)F)cc1`, the “activity change, negative = inhibition” value is inactive: -4.28%.

As for `CCCn1c2ccccc2c2cnn(CC(=O)NCc3ccc(OC)cc3)c(=O)c21`, the “activity change, negative = inhibition” value was inactive: -20.1%.

`COc1ccc(OC)c(NC(=O)CCn2cccn2)c1`: the “activity change, negative = inhibition” value is inactive: 0.361%.

Regarding `COc1ccccc1CNC(=O)C1CCN(S(=O)(=O)c2ccc3[nH]c(=O)ccc3c2)CC1`, the “activity change, negative = inhibition” value was inactive: 9%.

Take `CCOc1ccc(NC(=O)Cn2c(=O)n(Cc3ccco3)c(=O)c3ccc(C(=O)NC4CCCC4)cc32)cc1`: the “activity change, negative = inhibition” value was inactive: -6.97%.

`CCc1nn(CC(=O)N2CCN(c3cccc(Cl)c3)CC2)c(=O)c2cc3sccc3n12`: the “activity change, negative = inhibition” value was inactive: -13.1%.

Regarding `O=C(CCC1CCN(Cc2ccccc2)CC1)c1ccc2c(c1)NCCCC2`, the “activity change, negative = inhibition” value is inactive: -18.1%.

With `COc1cc(OC)c(NC(=O)Cn2c(SCc3ccccc3F)nc3cccnc32)cc1Cl`, the “activity change, negative = inhibition” value is inactive: -2.36%.

Take `Cc1ccccc1N=Nc1ccc(N=Nc2c(O)ccc3ccccc23)c(C)c1`: the “activity change, negative = inhibition” value is inactive: 2.4%.

In the case of `CCOc1ccc(NC(=O)Cn2nc(SC)c(S(=O)(=O)c3ccccc3)c2N)cc1`, the “activity change, negative = inhibition” value is inactive: -33.8%.

For `CC(=O)c1ccc(N2CCN(c3nc4ccccc4c4nc(-c5cccc(C)c5)nn34)CC2)cc1`, the “activity change, negative = inhibition” value is inactive: 3.2%.

In the case of `O=C(NCCCN1CCCCC1)c1[nH]c2ccccc2c1Sc1ccc(Cl)cc1`, the “activity change, negative = inhibition” value is inactive: -26.2%.

Take `COC1CCC(C(=O)c2ccc3nc4c(cc3c2)CCCO4)CC1` (centres undefined): the “activity change, negative = inhibition” value was inactive: -13.4%.

For `Cc1c(Cl)cccc1-n1ncc(C(=O)N2CCC(C)CC2)c1C1CCN(C(=O)OC(C)(C)C)CC1`, the “activity change, negative = inhibition” value was inactive: -7.63%.

On to `CC(C)C(NS(=O)(=O)c1ccc2c(c1)oc(=O)n2C)C(=O)NCc1ccccc1` (centres undefined), for which the “activity change, negative = inhibition” value was inactive: -3.08%.

Take `CC(=O)c1ccc(N2CCN(C(=O)c3cc4c(s3)-c3ccccc3OC4)CC2)cc1`: the “activity change, negative = inhibition” value was inactive: -2.07%.

As to `O=C(Nc1cccc(C(=O)OCc2cc(=O)n3c4c(sc3n2)CCCC4)c1)c1cccc(Cl)c1`, the “activity change, negative = inhibition” value was inactive: 10.5%.

As to `COc1cccc(NC(=O)Cn2nnc(C(=O)NCCc3ccccc3)c2N)c1`, the “activity change, negative = inhibition” value was inactive: 6.69%.

Consider `Cc1nc(-c2ccc(S(=O)(=O)N(Cc3ccccc3)C(C)C)cc2)co1`, for which the “activity change, negative = inhibition” value was inactive: -21.6%.

As for `COc1ccc(CCn2c(=O)c3cccnc3n(CC(=O)Nc3ccc(C)cc3C)c2=O)cc1OC`, the “activity change, negative = inhibition” value was inactive: 1.57%.

Consider `Cn1cc(C(=O)Nc2ccc(C#N)cc2)c2ccccc2c1=O`, for which the “activity change, negative = inhibition” value is inactive: -28.5%.

For the molecule `CCOc1ccc(CCNC(=O)c2ccc3c(c2)nc2n3CCOC2)cc1OCC`, the “activity change, negative = inhibition” value was inactive: -12.6%.

For the molecule `CC(C)OCCCNC(=O)CCCn1c(SCC(N)=O)nc2c(sc3ccccc32)c1=O`, the “activity change, negative = inhibition” value was inactive: -12.7%.

For `CN(C(=O)c1c2c(nc3ccccc13)C(=O)N(C1CCCCC1)C2)c1ccc(F)cc1`, the “activity change, negative = inhibition” value is inactive: -21.3%.

For the molecule `Cc1ccc(S(=O)(=O)NCCc2csc3nc(-c4ccccc4F)nn23)cc1C`, the “activity change, negative = inhibition” value was inactive: -35.9%.

Turning to `COc1cccc(-c2nc(SCc3ccc(C)cc3)n3[nH]c(=O)cc3n2)c1`, the “activity change, negative = inhibition” value was inactive: -0.158%.

As to `CC(NC(=O)C1CCN(S(=O)(=O)c2ccc3c(c2)oc(=O)n3C)CC1)c1ccccc1` (centres undefined), the “activity change, negative = inhibition” value was inactive: -12%.

Source of the values: PubChem BioAssay AID1508623 (National Center for Advancing Translational Sciences (NCATS), 2021).
